Reference: paper PMC5700166
The entries are a selection whose mix differs from that of the whole data set. The list includes weakly bound sequences.

Columns and labels:
Test in all cases: protein-binding microarray (PBM)
Settings in all cases: PBM: ~300 nM protein, 6 mM HEPES pH 7.8, 80 mM KCl, 0.5 mM EDTA, 0.5 mM EGTA, 6% glycerol, 35 ng/ul poly-dIdC, 1% milk, 1 h, room temperature; Ap Aiptasia and Nv Nematostella (sea anemones) / Co Capsaspora / Aq Amphimedon (sponge) / Dm Drosophila / Hu human; RHD is the Rel homology domain; high values mean tight binding; most listed sequences are background and not binding sites; double strand, one strand shown
[1] = target: T1, GST-Ap-NF-kB RHD (UniProt A0A913YAJ5)
T1 sequence: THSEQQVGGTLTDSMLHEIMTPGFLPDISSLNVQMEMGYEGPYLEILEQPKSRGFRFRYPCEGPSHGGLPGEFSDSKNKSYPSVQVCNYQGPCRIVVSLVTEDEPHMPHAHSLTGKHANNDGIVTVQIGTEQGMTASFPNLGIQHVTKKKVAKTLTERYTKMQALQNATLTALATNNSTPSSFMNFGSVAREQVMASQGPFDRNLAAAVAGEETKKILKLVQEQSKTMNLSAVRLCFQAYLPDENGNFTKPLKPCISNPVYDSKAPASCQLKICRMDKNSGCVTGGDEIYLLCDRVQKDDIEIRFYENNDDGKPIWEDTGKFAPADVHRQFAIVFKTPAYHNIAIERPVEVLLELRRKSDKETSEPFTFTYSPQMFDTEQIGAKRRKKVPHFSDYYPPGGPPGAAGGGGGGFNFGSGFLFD

[2] = target: T2, GST-Nv-NF-kB (Cys allele) (UniProt E5G601)
T2 sequence: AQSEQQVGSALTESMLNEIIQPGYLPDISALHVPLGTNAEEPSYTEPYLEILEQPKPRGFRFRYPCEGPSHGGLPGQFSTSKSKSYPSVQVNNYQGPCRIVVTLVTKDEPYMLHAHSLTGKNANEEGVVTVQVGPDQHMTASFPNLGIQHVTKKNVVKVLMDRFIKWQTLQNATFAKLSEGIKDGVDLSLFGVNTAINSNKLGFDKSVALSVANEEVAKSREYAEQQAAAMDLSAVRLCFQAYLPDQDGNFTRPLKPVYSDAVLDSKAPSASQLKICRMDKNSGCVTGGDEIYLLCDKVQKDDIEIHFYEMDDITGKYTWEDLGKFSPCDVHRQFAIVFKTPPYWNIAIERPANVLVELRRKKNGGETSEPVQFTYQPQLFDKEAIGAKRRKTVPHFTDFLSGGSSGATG

[3] = target: T3, GST-Dm-Relish (UniProt Q94527)
T3 sequence: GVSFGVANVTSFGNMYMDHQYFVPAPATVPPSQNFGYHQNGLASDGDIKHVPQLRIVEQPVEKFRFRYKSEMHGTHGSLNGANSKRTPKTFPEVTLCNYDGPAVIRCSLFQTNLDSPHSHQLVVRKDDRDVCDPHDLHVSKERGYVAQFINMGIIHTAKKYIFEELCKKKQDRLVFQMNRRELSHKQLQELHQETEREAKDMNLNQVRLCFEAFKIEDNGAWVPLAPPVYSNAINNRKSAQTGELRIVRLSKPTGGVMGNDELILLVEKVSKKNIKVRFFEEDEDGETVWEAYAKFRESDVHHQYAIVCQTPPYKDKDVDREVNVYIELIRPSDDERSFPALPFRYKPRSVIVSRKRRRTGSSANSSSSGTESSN

[4] = target: T4, GST-Aq-NF-kB (UniProt A9Y5G7)
T4 sequence: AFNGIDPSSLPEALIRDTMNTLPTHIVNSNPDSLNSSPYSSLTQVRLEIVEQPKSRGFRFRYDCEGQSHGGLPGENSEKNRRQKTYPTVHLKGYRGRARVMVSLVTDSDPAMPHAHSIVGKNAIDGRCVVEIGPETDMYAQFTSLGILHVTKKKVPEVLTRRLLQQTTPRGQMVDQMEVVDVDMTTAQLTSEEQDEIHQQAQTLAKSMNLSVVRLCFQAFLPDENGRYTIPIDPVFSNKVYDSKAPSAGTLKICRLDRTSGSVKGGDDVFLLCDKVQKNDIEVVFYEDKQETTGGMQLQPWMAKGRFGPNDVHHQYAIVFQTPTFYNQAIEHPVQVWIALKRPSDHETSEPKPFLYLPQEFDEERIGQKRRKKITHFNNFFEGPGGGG

[5] = target: T5, GST-Co-NF-kB (UniProt F1ARL5)
T5 sequence: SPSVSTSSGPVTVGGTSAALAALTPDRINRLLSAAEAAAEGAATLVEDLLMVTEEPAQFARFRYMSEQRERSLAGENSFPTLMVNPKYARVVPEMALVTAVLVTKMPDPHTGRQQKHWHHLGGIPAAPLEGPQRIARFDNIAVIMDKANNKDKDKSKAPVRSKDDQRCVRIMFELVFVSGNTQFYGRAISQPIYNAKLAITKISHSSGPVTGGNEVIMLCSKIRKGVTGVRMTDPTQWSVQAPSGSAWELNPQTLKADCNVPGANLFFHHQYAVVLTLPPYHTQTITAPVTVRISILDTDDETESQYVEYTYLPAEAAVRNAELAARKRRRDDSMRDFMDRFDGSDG

Sequence | binding signal [1] [z-score] | binding signal [2] [z-score] | binding signal [3] [z-score] | binding signal [4] [z-score] | binding signal [5] [z-score]
CCGATTAACATCACGGGGAATCCTGATGTTAATCGGGTCTTGATTCGCTTGACGCTGCTG | 9.87 | 9.94 | 10 | 7.48 | –
CCGATTAACATCAGGGGATCCCCTGATGTTAATCGGGTCTTGATTCGCTTGACGCTGCTG | 14.6 | 11.6 | 10.8 | 11.3 | –
CCGATTAACATCAACGTGATTTGTGATGTTAATCGGGTCTTGATTCGCTTGACGCTGCTG | -0.726 | -0.422 | 0.597 | -0.391 | –
CCGATTAACATCAGGACTTCCCCTGATGTTAATCGGGTCTTGATTCGCTTGACGCTGCTG | 10.1 | 10.5 | 9.98 | 10.4 | –
CCGATTAACATCAGGGAATCCCCTGATGTTAATCGGGTCTTGATTCGCTTGACGCTGCTG | 14.7 | 13.7 | 11 | 12.1 | –
CCGATTAACATCAGGCCATTCCCTGATGTTAATCGGGTCTTGATTCGCTTGACGCTGCTG | 1.39 | – | – | 4.37 | 0.178
CCGATTAACATCAAGGGTGGAAATGATGTTAATCGGGTCTTGATTCGCTTGACGCTGCTG | 0.771 | 0.22 | 0.0377 | 0.785 | –
CCGATTAACATCAACCCCAGCTCTGATGTTAATCGGGTCTTGATTCGCTTGACGCTGCTG | 1.01 | – | – | 0.585 | 1.8
CCGATTAACATCAGAAAAATACCTGATGTTAATCGGGTCTTGATTCGCTTGACGCTGCTG | 1.31 | – | – | 3.17 | 0.305
CCGATTAACATCAGGATCCCCCCTGATGTTAATCGGGTCTTGATTCGCTTGACGCTGCTG | 8.27 | – | – | 6.39 | 5.45
CCGATTAACATCAAGGTTTCCCCTGATGTTAATCGGGTCTTGATTCGCTTGACGCTGCTG | 7.4 | – | – | 6.28 | 8.15
CCGATTAACATCAAATTTCCCGGTGATGTTAATCGGGTCTTGATTCGCTTGACGCTGCTG | 4.14 | – | – | 4.88 | 6.34
CCGATTAACATCAAAAACCCCCCTGATGTTAATCGGGTCTTGATTCGCTTGACGCTGCTG | 10.5 | 9.26 | 11.3 | 8.84 | –
CCGATTAACATCAAGAATCCCCCTGATGTTAATCGGGTCTTGATTCGCTTGACGCTGCTG | 9.83 | – | – | 7.61 | 6.36
CCGATTAACATCAAGTCCCCCAATGATGTTAATCGGGTCTTGATTCGCTTGACGCTGCTG | 4.26 | – | – | 3.76 | 3.84
CCGATTAACATCAGGCTATCCCCTGATGTTAATCGGGTCTTGATTCGCTTGACGCTGCTG | 4.44 | – | – | 4.81 | 2.18
CCGATTAACATCAAAATTTACCGTGATGTTAATCGGGTCTTGATTCGCTTGACGCTGCTG | 0.895 | – | – | 2.12 | 1.05

Sequence | binding signal [1] [z-score] | binding signal [2] [z-score] | binding signal [3] [z-score] | binding signal [4] [z-score] | binding signal [5] [z-score]
CCGATTAACATCAAAAATCCCCTTGATGTTAATCGGGTCTTGATTCGCTTGACGCTGCTG | 10.4 | 12.3 | 10.1 | 8.57 | –
CCGATTAACATCAGGAATGTACCTGATGTTAATCGGGTCTTGATTCGCTTGACGCTGCTG | 0.321 | – | – | 3.14 | -0.683
CCGATTAACATCACCAGGTTAGGTGATGTTAATCGGGTCTTGATTCGCTTGACGCTGCTG | -0.198 | – | – | 0.668 | 0.425
CCGATTAACATCATATTCCCCCATGATGTTAATCGGGTCTTGATTCGCTTGACGCTGCTG | 6.56 | – | – | 5.97 | 8.84
CCGATTAACATCAATGTCGGTGGTGATGTTAATCGGGTCTTGATTCGCTTGACGCTGCTG | 0.896 | 0.352 | 0.243 | 0.95 | –
CCGATTAACATCAGGGTATAACGTGATGTTAATCGGGTCTTGATTCGCTTGACGCTGCTG | 0.603 | 0.736 | 0.383 | 0.929 | –
CCGATTAACATCAGGCAAGCCCCTGATGTTAATCGGGTCTTGATTCGCTTGACGCTGCTG | 2.62 | – | – | 5.11 | 0.173
CCGATTAACATCAGGGGTTTTACTGATGTTAATCGGGTCTTGATTCGCTTGACGCTGCTG | 5.39 | – | – | 5.84 | 1.49
CCGATTAACATCAAGGGAATGCCTGATGTTAATCGGGTCTTGATTCGCTTGACGCTGCTG | 2.72 | – | – | 4.2 | 1.06
CCGATTAACATCAACATTACCCCTGATGTTAATCGGGTCTTGATTCGCTTGACGCTGCTG | 2.39 | – | – | 2.86 | 4.07
CCGATTAACATCAATAAACCCCCTGATGTTAATCGGGTCTTGATTCGCTTGACGCTGCTG | 7.76 | – | – | 6.33 | 2.94
CCGATTAACATCAAGGTTTTCCCTGATGTTAATCGGGTCTTGATTCGCTTGACGCTGCTG | 4.36 | 5.34 | 5.1 | 5.65 | –
CCGATTAACATCAGGGATTCTCATGATGTTAATCGGGTCTTGATTCGCTTGACGCTGCTG | 2.96 | – | – | 2.67 | 0.799
CCGATTAACATCAAGACTTTCCCTGATGTTAATCGGGTCTTGATTCGCTTGACGCTGCTG | 4.06 | – | – | 6.09 | 2.92
CCGATTAACATCACCTTGAACGGTGATGTTAATCGGGTCTTGATTCGCTTGACGCTGCTG | -0.354 | – | – | 0.542 | 0.33
CCGATTAACATCACGAAAGTCCCTGATGTTAATCGGGTCTTGATTCGCTTGACGCTGCTG | 6.26 | – | – | 5.78 | 0.217
CCGATTAACATCAGGGGGTGTAATGATGTTAATCGGGTCTTGATTCGCTTGACGCTGCTG | 3.57 | – | – | 3.21 | 3.87
